Assay results reported in publication PMC7819943, “Rice protein-binding microarrays: a tool to detect cis-acting elements near promoter regions in rice”.
Some of the results follow.

target: T1, OsWOX13 (Oryza sativa, UniProt Q5QMM3 1-267); experiment: protein-binding microarray (RPBM); PBS, 2% BSA, 51.3 ng/ul salmon testes DNA, 50 uM zinc acetate, 200 nM TF, 25 C, 1 h; high values mean tight binding; conditions: protein: recombinant; tags: N-terminal polyhistidine and DsRed monomer fusion (pET32a); label: CyDye5-dUTP incorporated in the synthesized complementary strand; 3' TTTTT single-stranded linker to array surface; dsDNA, one strand shown
T1 sequence: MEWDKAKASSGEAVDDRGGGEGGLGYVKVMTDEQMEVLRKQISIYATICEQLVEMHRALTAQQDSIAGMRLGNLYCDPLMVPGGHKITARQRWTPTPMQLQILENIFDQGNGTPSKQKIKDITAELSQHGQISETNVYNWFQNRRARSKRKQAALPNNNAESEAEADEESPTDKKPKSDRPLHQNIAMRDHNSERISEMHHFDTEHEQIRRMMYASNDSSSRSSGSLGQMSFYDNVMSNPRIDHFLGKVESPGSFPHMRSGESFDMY
Outline: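 Binding signal is reported as fluorescence intensity per feature (arbitrary units) from an Axon 4000B scanner. Incubation used 200 nM of each Ni–NTA-purified, N-terminally polyhistidine- and DsRed-fused transcription factor from E. coli BL21-CodonPlus on a double-stranded custom Agilent array for 1 h at 25 °C, with 50 µM zinc acetate in the buffer, followed by washing.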

| Sequence | binding signal |
| --- | --- |
| CTAATGATTATACTAACCATATATTTATGTTAAGTATTATCGGAGTCACCTAGTGCAG | 8080 fluorescence intensity (a.u.) |
| ACTTGACAGGAATTGCAGAAAGGCCCCTCGCCAAAACTCACGGAGTCACCTAGTGCAG | 30900 fluorescence intensity (a.u.) |
| TCTTCTGATTGCTTTCACACAAGATCCAGCAAAATTAATTCGGAGTCACCTAGTGCAG | 16900 fluorescence intensity (a.u.) |
| CCCCAATCAGCCACCACCATCCACACTACCCTCCATCTTTCGGAGTCACCTAGTGCAG | 6300 fluorescence intensity (a.u.) |
| AGATTGACAAAGTTATAACAAGTGTGTCACTGTAAGAATACGGAGTCACCTAGTGCAG | 7760 fluorescence intensity (a.u.) |
| AGAGTACATAATTGAAGGTGGGAACGCCGAAATGTACTGACGGAGTCACCTAGTGCAG | 13800 fluorescence intensity (a.u.) |
| TTTATCAATTGAATTATCGAAACTAATGAATAGTGTGACGCGGAGTCACCTAGTGCAG | 13100 fluorescence intensity (a.u.) |
| TGGTGCGAGTTAATTAATTATCTACCTTTACCCTTTAAGCCGGAGTCACCTAGTGCAG | 17300 fluorescence intensity (a.u.) |
| TTTAAATGGAGAAGAGTGACAGAGGTGGATAAACCCGCTTCGGAGTCACCTAGTGCAG | 4610 fluorescence intensity (a.u.) |
| TTTAATTGTTCTGCGATTACGGTAGAAATAGATCGGGCTTCGGAGTCACCTAGTGCAG | 22500 fluorescence intensity (a.u.) |
| GGAACCGCAAGGGTTAATTGAGATCAAGTTCAGGTCAGAGCGGAGTCACCTAGTGCAG | 4610 fluorescence intensity (a.u.) |
| CATGGCTAATTATCGCCAGATCTAATGGAGCCACAAATGCCGGAGTCACCTAGTGCAG | 9610 fluorescence intensity (a.u.) |
| GTTGATGGTTAATTGCTTCCATAATTCTATTGCTGTATATCGGAGTCACCTAGTGCAG | 33900 fluorescence intensity (a.u.) |
| TGATGATTTGTGTGTACTAATTCCACTGAAACTTTCAAGGCGGAGTCACCTAGTGCAG | 34400 fluorescence intensity (a.u.) |
| TTGTAATTTCTAGAAATGGCATTGAGGAAATTACCAGTCTCGGAGTCACCTAGTGCAG | 7620 fluorescence intensity (a.u.) |
| TTGGATTGGTTACTATGTTTGCATTTACACTATTTATTATCGGAGTCACCTAGTGCAG | 8100 fluorescence intensity (a.u.) |
| CTTCATTAATTTTGGCCAAATATGATAATGTAGTGATGTTCGGAGTCACCTAGTGCAG | 7330 fluorescence intensity (a.u.) |
| AAGATTAAATTTTGCTTCATGTACCACGTGAATACCACGTCGGAGTCACCTAGTGCAG | 20700 fluorescence intensity (a.u.) |
| GAATAATTATTACACAATGCTAATTAATTTCACAATATTGCGGAGTCACCTAGTGCAG | 38800 fluorescence intensity (a.u.) |
| GGTGATTAGTCCACACTAACCAATAATGGTGACGGACGCTCGGAGTCACCTAGTGCAG | 15800 fluorescence intensity (a.u.) |
| AGATAATTGAATAGGAGATGAGAGGATGGGAGGGTCAGAGCGGAGTCACCTAGTGCAG | 36600 fluorescence intensity (a.u.) |

| Sequence | binding signal |
| --- | --- |
| TTTAAATTTACCAACTATTTTGCAGGGCAAGTTTAGGCATCGGAGTCACCTAGTGCAG | 7890 fluorescence intensity (a.u.) |
| TATTGTCAATTACAGGTCTAATTGTTTTATTTGGGTGATTCGGAGTCACCTAGTGCAG | 37200 fluorescence intensity (a.u.) |
| GCACACCCTAATTTGCTTTACCTAGGCCGTGTTTAGTTCCCGGAGTCACCTAGTGCAG | 4770 fluorescence intensity (a.u.) |
| GAGAGATTGGGGAGATTGTCACTCGTTTTCCGCGCACACGCGGAGTCACCTAGTGCAG | 10200 fluorescence intensity (a.u.) |
| CGTAGATTAATAACAAAACAAATTACATATTCCACCTGTACGGAGTCACCTAGTGCAG | 30600 fluorescence intensity (a.u.) |
| TTCTGGGTTAATTGGATCCATGCCATTATAAATTTGCTAGCGGAGTCACCTAGTGCAG | 30900 fluorescence intensity (a.u.) |
| GTTGATTTGTGTTTTGACTTTTGAAAAGACTACTGTTACTCGGAGTCACCTAGTGCAG | 27500 fluorescence intensity (a.u.) |
| TAAATGATTTCTAGATTTGGCAATAGAACGGTCAGTTGATCGGAGTCACCTAGTGCAG | 10900 fluorescence intensity (a.u.) |
| ATAATAGTTAATATTTAATTAATCATGTGCTAATAAACTTCGGAGTCACCTAGTGCAG | 5240 fluorescence intensity (a.u.) |
| AGATTAATCATATAAAATTAATGTTATTAGATTTATCATTCGGAGTCACCTAGTGCAG | 27100 fluorescence intensity (a.u.) |
| ACCCATATAATTAAGGTGCCAATGCTGCTAATACTCTCTCCGGAGTCACCTAGTGCAG | 4380 fluorescence intensity (a.u.) |
| ATGTTGATTGTCTAAAATCACAGATTTAGCACATTATCGACGGAGTCACCTAGTGCAG | 29800 fluorescence intensity (a.u.) |
| CAACAAATTCATCATAATTTCCGCCGCAAATGTCACACATCGGAGTCACCTAGTGCAG | 5240 fluorescence intensity (a.u.) |
| TATAGACTAATTAGGTTCAAAAGATTCGTCTTGTTATTTCCGGAGTCACCTAGTGCAG | 10700 fluorescence intensity (a.u.) |
| TGTTATATTTTCAATGACATGGATTGAATTAAACCCTTACCGGAGTCACCTAGTGCAG | 4740 fluorescence intensity (a.u.) |
| TTGATTGAAATTGGAGATGATGTGACTGAAAAGTTGTGTGCGGAGTCACCTAGTGCAG | 41800 fluorescence intensity (a.u.) |
| CATCTGGCGATTGCATATTAATTTGCATGGCGAAGCTTCCCGGAGTCACCTAGTGCAG | 5830 fluorescence intensity (a.u.) |
| CATGTTAATTTAAGATGATAGTCGGAATCCTAATTGCAGCCGGAGTCACCTAGTGCAG | 28900 fluorescence intensity (a.u.) |
| AGCTGTTAGACTGCAATCTTAATTGCTGCATCGTTTCACTCGGAGTCACCTAGTGCAG | 12100 fluorescence intensity (a.u.) |
| GCATCGGAATTTTGGATGTGATTGCCTGCATCGGATGGATCGGAGTCACCTAGTGCAG | 18200 fluorescence intensity (a.u.) |
| TGTTATTATCCCAATTAACAAAACACGAGACCACATTTTACGGAGTCACCTAGTGCAG | 3240 fluorescence intensity (a.u.) |
